# Measured values published in PubChem BioAssay (NCATS).
# Inconclusive results, whose numbers are uncertain, are shown with a selection of clear calls. For part of these data: Potencies beside an inconclusive call are fits to weak or partial responses and may not hold up. The source made the active and inactive calls. Unless noted, calls follow the shape of the dose curve; as a rule, active = well fitted curve in the direction sought with a large enough effect; inconclusive = small, poorly fitted or top-dose-only effect, or another doubt; inactive = no such curve, though single readings can be large; an effect the other way counts as inactive or inconclusive.
# Key:
# [1] = target: Cytochrome P450 2C9 (Homo sapiens) (UniProt P11712); experiment: qHTS Assay for Inhibitors and Substrates of Cytochrome P450 2C9 (AID 883); also: nearly all actives have a fitted effect of over 60% in size; also: potency is read from the fitted curve at half-maximal effect; as to activity change, negative = inhibition: % is scaled to controls: 0 for no effect and ±100 for the full control effect
# Chain of UniProt P11712 (P11712 whole entry, looked up): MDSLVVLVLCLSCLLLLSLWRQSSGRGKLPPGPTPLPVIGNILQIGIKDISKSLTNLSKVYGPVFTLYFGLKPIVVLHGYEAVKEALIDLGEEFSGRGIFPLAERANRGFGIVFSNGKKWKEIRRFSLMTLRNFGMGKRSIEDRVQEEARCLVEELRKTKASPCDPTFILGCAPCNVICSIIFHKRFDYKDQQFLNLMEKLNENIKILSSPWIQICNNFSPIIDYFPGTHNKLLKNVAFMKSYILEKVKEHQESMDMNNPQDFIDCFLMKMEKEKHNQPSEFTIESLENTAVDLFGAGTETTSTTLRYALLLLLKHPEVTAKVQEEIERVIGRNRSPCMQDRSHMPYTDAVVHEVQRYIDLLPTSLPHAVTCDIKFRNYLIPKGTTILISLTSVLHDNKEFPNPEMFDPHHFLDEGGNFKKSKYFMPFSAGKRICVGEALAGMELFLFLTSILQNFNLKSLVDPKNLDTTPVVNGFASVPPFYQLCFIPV
# Summary of the method: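 Luminescent read-out of deoxyluciferin hydroxylation, normalized to 57uM sulphaphenazole (AC100). Reaction: 10nM enzyme, 100uM Luciferin-H (equal to KM), 25mM KPO4, 10 min compound preincubation, then 60 min with NADPH regeneration, both at 37C.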
# [2] = Cytometric Cell-Based qHTS for Inhibitors of the mTORC1 Signaling Pathway in MEF (Tsc2-/-, p53-/-) Cells (AID 2660);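 also: Tsc2 and p53 null MEFs carrying empty vector with compound for 24 h; percent of cells above a phospho-rpS6 to PI ratio cutoff in each well; plate controls were DMSO for no effect and rapamycin for full effect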
# Summary of the method: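 Immunofluorescence qHTS of rpS6 Ser235/236 phosphorylation: MEFs (Tsc2-/-, p53-/-) treated 24 h, 37 C, in DMEM + 10% FBS. Alexa-488 signal normalized to PI count, referenced to rapamycin (7.5 nM) and DMSO; PI cell number recorded for viability.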
# [3] = target: Thioredoxin reductase 1, cytoplasmic (Rattus norvegicus) (UniProt O89049); experiment: qHTS Assay for Substrates of Mammalian Selenoprotein Thioredoxin Reductase 1 (TrxR1) (AID 488772);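 also: NADPH fluorescence in the first read after selenite addition and not the 8 min delta; 0% is about no effect; a drop in NADPH fluorescence below the no-compound background marks a TrxR1 substrate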
# Chain of UniProt O89049 (O89049 whole entry, looked up): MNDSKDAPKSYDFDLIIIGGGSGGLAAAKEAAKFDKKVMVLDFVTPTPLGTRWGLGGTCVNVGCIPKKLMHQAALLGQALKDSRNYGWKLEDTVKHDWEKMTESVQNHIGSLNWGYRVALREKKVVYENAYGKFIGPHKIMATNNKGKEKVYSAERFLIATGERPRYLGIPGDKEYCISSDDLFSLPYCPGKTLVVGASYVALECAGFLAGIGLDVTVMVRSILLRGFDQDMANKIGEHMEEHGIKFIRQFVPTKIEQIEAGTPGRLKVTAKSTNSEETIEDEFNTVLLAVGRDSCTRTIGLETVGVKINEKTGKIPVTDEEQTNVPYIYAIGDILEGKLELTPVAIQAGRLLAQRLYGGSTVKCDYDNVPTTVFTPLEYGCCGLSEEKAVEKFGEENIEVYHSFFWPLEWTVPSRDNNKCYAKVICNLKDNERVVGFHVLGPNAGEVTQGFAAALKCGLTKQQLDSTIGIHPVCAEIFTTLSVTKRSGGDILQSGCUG
# Summary of the method: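 Quantitative HTS in Tris-HCl buffer at pH 7.5 with EDTA and Tween-20, using rat TrxR1, 400 uM NADPH and 400 uM selenite (final). A fall in initial NADPH fluorescence relative to background marked substrate behaviour.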
# [4] = target: Glutathione peroxidase 1 (Homo sapiens) (UniProt P07203); experiment: Primary qHTS Assay for Inhibitors of Recombinant Selenoprotein Glutathione Peroxidase 1 (GPX1) (AID 1845191); also: nearly all actives have a fitted effect of over 65% in size; also: potency is read from the fitted curve at half-maximal effect
# Chain of UniProt P07203 (P07203 whole entry, looked up): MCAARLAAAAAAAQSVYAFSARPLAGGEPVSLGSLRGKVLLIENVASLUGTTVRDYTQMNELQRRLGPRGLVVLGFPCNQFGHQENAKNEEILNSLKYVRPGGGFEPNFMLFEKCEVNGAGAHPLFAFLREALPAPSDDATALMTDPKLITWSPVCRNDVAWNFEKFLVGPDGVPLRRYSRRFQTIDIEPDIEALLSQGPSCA
# Summary of the method: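 10 nM GPX1 + cpd, 30 min RT; start w/ 1 mM GSH, 0.5 mM cumene hydroperoxide, 0.5 mM NADPH, 100 nM GR, 0.01% BSA; buffer 50 mM Tris-HCl pH 7.5, 2 mM EDTA, 150 mM NaCl; Fl 340/450, 0 & 15 min.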
# [5] = AP1 Signaling Pathway (AID 357; active = well fitted curve in either direction with a large enough effect, not every such curve was filed as active; inconclusive = small, poorly fitted or top-dose-only effect, or another doubt;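 also: ME-180 reporter cells stimulated with EGF at its EC50 level; top concentration of the series differs between compounds; % is scaled to controls: 0 for no effect and ±100 for the full control effect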); conditions: ME-180 AP-1-bla reporter, EGF-induced, beta-lactamase ratio, 5 h; at 38 µM (top of the series)
# Summary of the method: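 AP-1-bla ME-180 cells, Opti-MEM + 0.5% dialyzed FBS, plated overnight 37 °C. Cpd titration + EC50 EGF, 5 h 37 °C. CCF4 2.5 h RT; ex 405, em 460/530 ratio → %activity, AC50.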
# [6] = target: ATP-dependent DNA helicase Q1 (Homo sapiens) (UniProt P46063); experiment: qHTS Validation Assay for Inhibitors of RecQ-Like Dna Helicase 1 (RECQ1) (AID 2353); also: potency is read from the fitted curve at half-maximal effect
# Chain of UniProt P46063 (P46063 whole entry, looked up): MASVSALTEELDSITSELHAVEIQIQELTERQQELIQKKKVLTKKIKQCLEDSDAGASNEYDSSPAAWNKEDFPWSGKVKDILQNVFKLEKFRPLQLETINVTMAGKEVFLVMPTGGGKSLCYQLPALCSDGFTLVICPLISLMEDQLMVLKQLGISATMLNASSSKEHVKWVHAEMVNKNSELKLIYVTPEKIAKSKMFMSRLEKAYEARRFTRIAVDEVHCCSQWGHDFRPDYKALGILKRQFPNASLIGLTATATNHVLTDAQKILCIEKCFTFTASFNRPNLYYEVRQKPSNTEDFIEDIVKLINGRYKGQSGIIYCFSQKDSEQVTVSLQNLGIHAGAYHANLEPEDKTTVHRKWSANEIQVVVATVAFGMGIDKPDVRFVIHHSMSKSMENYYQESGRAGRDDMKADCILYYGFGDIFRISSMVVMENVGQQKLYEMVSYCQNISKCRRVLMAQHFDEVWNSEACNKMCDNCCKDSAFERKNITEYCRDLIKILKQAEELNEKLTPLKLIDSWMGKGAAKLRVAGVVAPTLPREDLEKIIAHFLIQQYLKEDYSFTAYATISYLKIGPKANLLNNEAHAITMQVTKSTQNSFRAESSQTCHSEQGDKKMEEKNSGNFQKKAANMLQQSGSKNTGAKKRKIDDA
# Summary of the method: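 50 nM RECQ1T1 preincubated 15 min with compound in Tris pH 8.0 buffer with MgCl2, DTT, Tween-20 and 2.5 ug/ml poly(dI-dC); started with 200 nM TAMRA/BHQ-2 forked duplex and 2 mM ATP. Unwinding read as fluorescence (525/598 nm), two reads 2 h apart.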
# [7] = Confirmatory qHTS for small molecule stabilizers of the endoplasmic reticulum resident proteome: Secreted ER Calcium Modulated Protein (SERCaMP) assay (AID 1508628); also: potency is read from the fitted curve at half-maximal effect; nearly all actives have a fitted effect of over 40% in size
# Summary of the method: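 We seeded SH-SY5Y-GLuc-SERCaMP cells, added compounds (three concentrations in the primary run, eleven up to 76.6 uM in confirmation), incubated 16 h, depleted ER calcium with thapsigargin, and read luciferase 4 h later.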
# [8] = Cell Viability qHTS for small molecule stabilizers of the endoplasmic reticulum resident proteome (AID 1508629); conditions: cell viability counter-screen, 100 nM thapsigargin for final 4 h;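 also: compound exposure about 46 h in total before the viability read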; also: potency is read from the fitted curve at half-maximal effect;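 as to max response: human SH-SY5Y neuroblastoma cells carrying the GLuc-SERCaMP reporter; % is scaled to controls: 0 for no effect and ±100 for the full control effect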
# [9] = Validation of Assay for Modulators of Lamin A Splicing (AID 1459; active = well fitted curve in the direction sought with a large enough effect in the signal ratio; inconclusive = small, poorly fitted or top-dose-only effect, or effect the other way, or a change in a side signal; inactive = no such curve, though single readings can be large or run the other way; the % refers to the signal ratio;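 also: cells exposed to compound for two days before reading; 0% is about no effect; ratio rise marks activators and ratio drop marks inhibitors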); conditions: Lamin A splicing dual RFP/GFP fluorescence reporter; Potency: ratio unless noted; ratio change, both ways: at 9.22 µM unless noted
# Summary of the method: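 Splicing correction is reported by an EGFP-containing lamin A minigene in stably transfected S3 HeLa cells, while DsRed2 controls for viability and nonspecific signal. Cells are exposed to compounds for 48 hrs before the GFP over RFP ratio is taken.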
# [10] = qHTS of Trypanosoma Brucei Inhibitors: LOPAC Validation (AID 624147); also: potency is read from the fitted curve at half-maximal effect; as to activity change, negative = inhibition: 0% is about no effect
# Summary of the method: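 T. brucei PYK with substrate was exposed to pin-transferred compounds across a concentration series, then started with 130 uM ADP (final). After 45 min at room temperature, Kinase-Glo Plus luminescence was read, normalized and curve-fitted.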
# [11] = Primary qHTS for inhibitors of La Crosse Virus (LACV) - induced cell death in SH-SY5Y cells (AID 1508616); also: potency is read from the fitted curve at half-maximal effect
# Summary of the method: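 Luminescent ATP readout (ATPLite 1step, 5 min room temperature) measured rescue from LACV-induced death after 6 days of infection at 0.01 MOI; normalized to infected DMSO wells and uninfected DMSO wells.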
# [12] = test system: Zika virus NS2B-NS3 protease (unlinked complex); experiment: Confirmatory screen GU AMC qHTS for Zika virus inhibitors (AID 1347153);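 also: percent inhibition with 0% = no inhibitor control and 100% = no enzyme control; nearly all actives have a fitted effect of over 70% in size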
# Summary of the method: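 Compounds were preincubated 15 min at room temperature with 25 nM noncovalent NS2B-NS3 protease at pH 8.0; AMC substrate added at 10 microM and 15-min fluorescence gain (340/450 nm) converted to percent inhibition, fitted 4-parameter.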
# [13] = Validation screen for small molecules that induce genotoxicity in human embryonic kidney (HEK293T) cells expressing luciferase-tagged ELG1 (AID 493106); also: potency is read from the fitted curve at half-maximal effect
# Summary of the method: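 HEK293T cells expressing luciferase-tagged ELG1 were exposed to compound or DMSO vehicle for 16 hr at 37 °C, 5% CO2. Genotoxic stress raises ELG1 levels, so increased luciferase signal after ONE-Glo addition and 30 min at room temperature marks hits.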
# [14] = target: Glucagon-like peptide 1 receptor (Homo sapiens) (UniProt P43220); experiment: qHTS of GLP-1 Receptor Agonists: LOPAC Validation (AID 624148); conditions: GLP-1R agonist cell assay; activation: at 46.1 µM (top of the series);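 also: luminescence from a luciferase reporter switched on by cAMP; 0% is about no effect; higher luminescence signal means agonism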
# Chain of UniProt P43220 (P43220 whole entry, looked up): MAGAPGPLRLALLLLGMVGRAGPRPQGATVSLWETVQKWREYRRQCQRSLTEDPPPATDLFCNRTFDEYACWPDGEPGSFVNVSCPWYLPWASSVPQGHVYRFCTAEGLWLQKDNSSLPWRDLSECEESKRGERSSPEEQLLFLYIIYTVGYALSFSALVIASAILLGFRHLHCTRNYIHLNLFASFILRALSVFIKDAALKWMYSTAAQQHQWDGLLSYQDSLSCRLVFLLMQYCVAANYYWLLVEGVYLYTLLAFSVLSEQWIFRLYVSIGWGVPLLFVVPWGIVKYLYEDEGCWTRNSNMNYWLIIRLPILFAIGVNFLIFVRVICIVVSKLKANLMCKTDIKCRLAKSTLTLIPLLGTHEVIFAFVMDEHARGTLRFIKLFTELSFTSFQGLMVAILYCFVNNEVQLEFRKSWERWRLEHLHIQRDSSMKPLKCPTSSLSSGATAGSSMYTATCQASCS
# Summary of the method: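 Agonism scored as increased luciferase luminescence driven by cAMP in HEK293 clones carrying GLP-1R. Cells settled 12 hours, received compound for 4-6 hr at 37 deg C, 5% CO2, and were read after 12 min detection reagent at RT.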
# [15] = qHTS Assay for Identification of Small Molecule Agonists for Hypoxia Response Element Signaling Pathway (AID 914; active = well fitted activation curve with a large enough effect in the signal ratio, with a control signal flat, not every such curve was filed as active; inconclusive = small, poorly fitted or top-dose-only effect, or effect the other way, or a change in a side signal; the % refers to the signal ratio; also: potency is read from the fitted curve at half-maximal effect); conditions: ME-180 (cervical carcinoma) HRE-bla reporter, beta-lactamase ratio, CoCl2, 17 h; activation: stronger effect = higher value
# Summary of the method: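 AC50 values come from titration-series %Activity, taken as the 460/530nm ratio of CCF4 fluorescence (excitation 405nm). CellSensor HRE-bla ME-180 cells were treated 17 hours at 37 C with compound plus an EC50 level of CoCl2.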
# [16] = qHTS for Activators of Parkin Expression: LOPAC Validation Assay (NLuc Reporter) (AID 720572; also: potency is read from the fitted curve at half-maximal effect)
# Summary of the method: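 Parkin promoter-driven FLuc/NLuc neuronal reporter cells; 24 h plating, 7-pt dose response, 24 h at 37 C/5% CO2; FLuc then NanoLuc reagent, 10 min each, luminescence; DMSO/positive control normalized.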
# [17] = qHTS for Activators of Parkin Expression: LOPAC Validation Assay (FLuc Reporter) (AID 720573; also: potency is read from the fitted curve at half-maximal effect)
# Summary of the method: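 A neuronal cell line harbouring FLuc and NLuc reporters behind the Parkin promoter was exposed to compounds for 24 h. Firefly luciferase signal, measured after 10 min with detection reagent, was scaled to DMSO and positive-control wells.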
# [18] = Confirmatory screen NINDS Rhodamine qHTS for Zika virus inhibitors (AID 1347161); also: potency is read from the fitted curve at half-maximal effect; nearly all actives have a fitted effect of over 60% in size
# Summary of the method: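 Enzyme (25 nM, linked NS2B-NS3) was preincubated 15 min with compound in 10 mM Tris-HCl pH 8.0, 0.01% Tween 20. Rhodamine110 substrate (1.5 microM) was then added and fluorescence read at start and after 15 min.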
# Tags tell the direction and shape of the fitted curve or compound fluorescence and quenching.
smiles,measurement,setting,value
CCCC[C@@H]1CN2[C@H](c3ccc(Br)cc3)[C@H](C)CC[C@H]2C(=O)O1,Potency,[1],"inconclusive: 5.01 µM [inhibitor, single point]"
CCCCS(=N)(=O)CC[C@H](N)C(=O)O (stereo partly drawn),Potency,[2],inactive
same,Potency,[3],inactive
O=C(CS(=O)Cc1ccco1)NC/C=C\COc1cc(CN2CCCCC2)ccn1 (stereo not drawn),Potency,[4],active: 18 µM
COc1cc(/C=C(\C#N)C(=O)c2ccc(O)c(O)c2)cc(I)c1O,"activity change, negative = inhibition",[5],inconclusive: -54.2% [inhibitor]
same,Potency,[6],active: 4.47 µM
same,Potency,[2],inactive
same,Potency,[7],"inconclusive: 35.5 µM [inhibitor, partial curve, poor fit]"
same,max response,[8],inactive: 17.8%
CNc1ncnc2c1ncn2[C@H]1C[C@H](OP(=O)(O)O)[C@@H](COP(=O)(O)O)O1,"ratio change, both ways",[9],inactive: 4.88%
same,Potency,[10],inactive
COc1ccc(-c2cc3ncc(C)n3c(Nc3ncccc3C(N)=O)n2)cc1OC,Potency,[11],"inconclusive: 1.78 µM [inhibitor, partial curve, poor fit]"
same,Potency,[4],inactive
O=C(NOCC1CC1)c1cc(Br)c(F)c(F)c1Nc1ccc(I)cc1Cl,Potency,[12],inactive
Cc1cccc(C)c1OCC(N)C(C)C (stereo not drawn),"ratio change, both ways",[9],inactive: -3.88%
same,Potency,[13],inactive
same,Potency,[14],inactive
CCN(c1nc(N)c(C(=O)N=C(N)N)nc1Cl)C(C)C,"ratio change, both ways",[9],inactive: 4.25%
same,Potency,[11],"inconclusive: 1 µM [inhibitor, full curve]"
CC(C)(CO)Cc1cc(C(C)(C)C)c(O)c(C(C)(C)C)c1,Potency,[15],active: 12.6 µM
same,"ratio change, both ways",[9],inconclusive: -15.7%
O=c1cc(O)cc(/C=C/c2ccc(O)c(O)c2)o1,Potency,[16],"inconclusive: 20.6 µM [activator, partial curve]"
same,Potency,[11],"inconclusive: 2.51 µM [inhibitor, partial curve, poor fit]"
same,Potency,[8],"inconclusive: 22.4 µM [cytotoxic, partial curve, poor fit]"
CNC(=O)c1cc2c(cn1)[nH]c1ccccc12,Potency,[1],inactive
same,Potency,[13],"inconclusive: 18.3 µM [activator, partial curve, poor fit]"
same,Potency,[17],"inconclusive: 13 µM [activator, partial curve]"
same,Potency,[12],inactive
same,Potency,[18],"inconclusive: 34.9 µM [inhibitor, partial curve, poor fit]"
O=C(O)Cc1ccc(O)c(O)c1,Potency,[15],"inconclusive: 15.8 µM [inhibitor, partial curve]"
same,Potency,[13],inactive
same,Potency,[10],"inconclusive: 33.8 µM [inhibitor, partial curve]"
O=c1[nH]c2cc(Cl)ccc2c(O)c1-c1ccc(Oc2ccccc2)cc1,"ratio change, both ways",[9],inactive: -12.5%
